Among the data in paper PMC5735157 are binding values, retold here.

Chains of the proteins cited; added tags and fusions are not shown.
UniProt O88522: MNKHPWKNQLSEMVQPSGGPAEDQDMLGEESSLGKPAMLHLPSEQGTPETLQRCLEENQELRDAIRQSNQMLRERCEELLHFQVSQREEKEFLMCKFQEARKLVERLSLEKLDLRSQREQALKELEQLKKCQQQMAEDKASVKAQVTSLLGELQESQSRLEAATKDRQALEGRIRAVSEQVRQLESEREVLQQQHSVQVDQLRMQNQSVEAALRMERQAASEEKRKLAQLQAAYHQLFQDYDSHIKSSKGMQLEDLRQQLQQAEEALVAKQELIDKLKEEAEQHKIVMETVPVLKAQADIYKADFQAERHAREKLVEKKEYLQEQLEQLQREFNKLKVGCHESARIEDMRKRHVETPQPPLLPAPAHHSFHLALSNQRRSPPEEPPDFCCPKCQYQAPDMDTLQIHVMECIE
UniProt Q13546: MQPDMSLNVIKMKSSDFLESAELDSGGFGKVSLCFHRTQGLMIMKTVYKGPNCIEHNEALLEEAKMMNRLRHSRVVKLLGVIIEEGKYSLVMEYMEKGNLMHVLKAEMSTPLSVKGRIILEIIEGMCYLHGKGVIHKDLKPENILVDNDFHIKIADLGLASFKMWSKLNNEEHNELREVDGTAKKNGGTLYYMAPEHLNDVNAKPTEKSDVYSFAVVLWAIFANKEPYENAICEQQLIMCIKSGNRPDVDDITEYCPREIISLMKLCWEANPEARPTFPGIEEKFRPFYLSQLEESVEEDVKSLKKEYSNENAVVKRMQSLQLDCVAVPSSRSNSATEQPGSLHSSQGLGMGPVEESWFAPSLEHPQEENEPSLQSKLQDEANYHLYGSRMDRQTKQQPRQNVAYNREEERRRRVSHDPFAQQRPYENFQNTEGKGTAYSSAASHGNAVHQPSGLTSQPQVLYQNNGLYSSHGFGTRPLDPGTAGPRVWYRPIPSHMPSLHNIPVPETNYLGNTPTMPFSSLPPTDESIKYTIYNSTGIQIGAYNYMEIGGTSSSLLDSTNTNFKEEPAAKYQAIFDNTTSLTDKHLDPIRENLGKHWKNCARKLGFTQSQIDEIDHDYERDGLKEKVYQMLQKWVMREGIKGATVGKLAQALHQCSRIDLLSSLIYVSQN

Assay [1] has as its target T1, angiopoietin-like 8 (ANGPTL8), full length, Flag- or HA-tagged, overexpressed (human) (UniProt Q6UXH0).
T1 sequence: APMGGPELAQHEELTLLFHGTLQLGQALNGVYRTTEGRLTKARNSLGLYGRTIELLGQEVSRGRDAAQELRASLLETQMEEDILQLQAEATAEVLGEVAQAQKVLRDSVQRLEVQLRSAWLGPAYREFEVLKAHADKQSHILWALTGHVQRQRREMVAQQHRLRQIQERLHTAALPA
Put plainly: co-IP; transfected HEK293T cells (mammalian overexpression system), with or without TNFα; lysis in 20 mM Tris-HCl pH 7.4, 150 mM NaCl, 1 mM EDTA, 1% Triton X-100; 0.5 μg antibody and GammaBind Plus-Sepharose, 4 °C, 4 h; washes with 500 mM NaCl; immunoblot.

Assay [2] addresses T2, ANGPTL8, endogenous in HepG2 cells (human (endogenous in HepG2)) (UniProt Q6UXH0).
T2 sequence: T1 sequence
In words: co-IP; endogenous proteins in untransfected HepG2 cells, left unstimulated or treated with TNFα (50 ng/mL) for the indicated times; IP with anti-IKKγ or anti-ANGPTL8; also in ANGPTL8-RNAi and ANGPTL8-deficient cells; washes with 500 mM NaCl; immunoblot. For orientation: Immunoblotting shows a protein as a band on a membrane.

Assay [3] addresses T3, Angptl8, endogenous in mouse liver (mouse (endogenous in liver)) (UniProt Q8R1L8).
T3 sequence: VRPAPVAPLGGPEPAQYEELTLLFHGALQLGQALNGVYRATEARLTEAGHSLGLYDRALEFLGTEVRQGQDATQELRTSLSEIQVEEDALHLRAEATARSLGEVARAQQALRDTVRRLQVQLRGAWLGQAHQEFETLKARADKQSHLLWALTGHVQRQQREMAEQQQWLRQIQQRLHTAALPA
In words: co-IP; liver lysates of C57BL/6 mice injected i.p. with LPS (3 mg/kg) for 0, 1 or 6 h; equal amounts of lysate of the animals of one time point mixed; immunoblot.

For assay [4], the target named is T4, ANGPTL8-Δ26–70 truncation mutant (human) (UniProt Q6UXH0).
T4 sequence: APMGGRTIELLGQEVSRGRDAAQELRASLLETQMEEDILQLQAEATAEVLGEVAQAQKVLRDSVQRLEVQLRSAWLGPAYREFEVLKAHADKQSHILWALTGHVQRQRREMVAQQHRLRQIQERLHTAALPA
In words: co-IP; transfected HEK293T cells (mammalian overexpression system), with or without TNFα; lysis in 20 mM Tris-HCl pH 7.4, 150 mM NaCl, 1 mM EDTA, 1% Triton X-100; 0.5 μg antibody and GammaBind Plus-Sepharose, 4 °C, 4 h; washes with 500 mM NaCl; immunoblot.

Assay [5] deals with IKKγ, endogenous in HepG2 cells (human (endogenous in HepG2)) (UniProt Q9Y6K9). In words: co-IP; endogenous proteins in untransfected HepG2 cells, left unstimulated or treated with TNFα (50 ng/mL) for the indicated times; IP with anti-IKKγ or anti-ANGPTL8; also in ANGPTL8-RNAi and ANGPTL8-deficient cells; washes with 500 mM NaCl; immunoblot.
For assay [6], the target named is recombinant ANGPTL8, purified (human) (UniProt Q6UXH0). In words: dynamic light scattering + far-Western, overlay or dot blot; purified recombinant ANGPTL8 incubated in solution; DLS at room temperature, scattering angle 90°; dot blots probed with anti-oligomer (A-11) and anti-fibril (OC) antibodies; oligomers and fibrils also seen by transmission electron microscopy; both purified.

No constants are given. Whether binding was seen depends on the method and setting. For part of these data: In cells and extracts the contact can be indirect. Some binding calls cover weakened binding; strength is not graded here. For part of these data: Sequences can lack the tags named with a protein.

Take “IKKγ (NF-κB essential modulator, NEMO), Flag- or HA-tagged, overexpressed (from UniProt Q9Y6K9 1-419)”: in assay [1], the binding entry is “binds”.

“IKKγ, endogenous in HepG2 cells (from UniProt Q9Y6K9 1-419)”: the binding entry in assay [2] is on record as “binds”.

“Ikkγ, endogenous in mouse liver (from UniProt O88522 1-412)”: the binding result in assay [3] is recorded as “binds”.

“RIP1, endogenous in HepG2 cells (from UniProt Q13546 1-671)”: in assay [2], the binding entry is “binds”.

“p62, HA- or Flag-tagged, overexpressed (from UniProt Q13501 1-440)”: the binding entry in assay [4] and in assay [1] was “binds” in each case.

“p62, endogenous in HepG2 cells (from UniProt Q13501 1-440)”: the binding result in assay [2] and in assay [5] was “binds” throughout.

As for “receptor interacting protein 1 (RIP1), Flag-tagged, overexpressed (from UniProt Q13546 1-671)”, the binding result in assay [1] was “binds”.

B1: recombinant ANGPTL8, purified (protein, UniProt Q6UXH0 22-198)
chain: T1 sequence
As for B1, the binding result in assay [6] is reported as “binds”.

B2: angiopoietin-like 8 (ANGPTL8), full length, Flag- or HA-tagged, overexpressed (protein, UniProt Q6UXH0 22-198)
chain: T1 sequence
With B2, in assay [1], the binding result is given as “binds”.

B3: ANGPTL8-Δ26–70 truncation mutant (protein, UniProt Q6UXH0)
chain: T4 sequence
B3: the binding entry in assay [1] is recorded as “no binding”.

B4: ANGPTL8 truncation mutant 71-C (domain or fragment, UniProt Q6UXH0 71-198)
chain: GRTIELLGQEVSRGRDAAQELRASLLETQMEEDILQLQAEATAEVLGEVAQAQKVLRDSVQRLEVQLRSAWLGPAYREFEVLKAHADKQSHILWALTGHVQRQRREMVAQQHRLRQIQERLHTAALPA
With B4, the binding entry in assay [1] is “no binding”.

B5: IKKβ, Flag-tagged, overexpressed (protein, UniProt O14920 1-756)
chain: MSWSPSLTTQTCGAWEMKERLGTGGFGNVIRWHNQETGEQIAIKQCRQELSPRNRERWCLEIQIMRRLTHPNVVAARDVPEGMQNLAPNDLPLLAMEYCQGGDLRKYLNQFENCCGLREGAILTLLSDIASALRYLHENRIIHRDLKPENIVLQQGEQRLIHKIIDLGYAKELDQGSLCTSFVGTLQYLAPELLEQQKYTVTVDYWSFGTLAFECITGFRPFLPNWQPVQWHSKVRQKSEVDIVVSEDLNGTVKFSSSLPYPNNLNSVLAERLEKWLQLMLMWHPRQRGTDPTYGPNGCFKALDDILNLKLVHILNMVTGTIHTYPVTEDESLQSLKARIQQDTGIPEEDQELLQEAGLALIPDKPATQCISDGKLNEGHTLDMDLVFLFDNSKITYETQISPRPQPESVSCILQEPKRNLAFFQLRKVWGQVWHSIQTLKEDCNRLQQGQRAAMMNLLRNNSCLSKMKNSMASMSQQLKAKLDFFKTSIQIDLEKYSEQTEFGITSDKLLLAWREMEQAVELCGRENEVKLLVERMMALQTDIVDLQRSPMGRKQGGTLDDLEEQARELYRRLREKPRDQRTEGDSQEMVRLLLQAIQSFEKKVRVIYTQLSKTVVCKQKALELLPKVEEVVSLMNEDEKTVVRLQEKRQKELWNLLKIACSKVRGPVSGSPDSMNASRLSQPGQLMSQPSTASNSLPEPAKKSEELVAEAHNLCTLLENAIQDTVREQDQSFTALDWSWLQTEEEEHSCLEQAS
As for B5, the binding result in assay [1] is given as “binds”.

B6: IKKβ, endogenous in HepG2 cells (protein, UniProt O14920 1-756)
chain: B5 chain
As for B6, in assay [2], the binding result is on record as “binds”.
